Test results taken from PubChem BioAssay AID686979 (National Center for Advancing Translational Sciences (NCATS), 2013).
Where “and” joins values, the source holds several entries; their conditions need not be identical. Equal values may be shown once. The whole screen tested about 420,000 compounds, of which about 50,000 (12%) were called active. Inconclusive means that the source gave no clear call. Such entries were picked first, then a sample of the others. Calls follow the shape of the dose curve; as a rule, active = well fitted inhibition curve with a large enough effect; inconclusive = small, poorly fitted or top-dose-only effect; inactive = flat fitted curve, though single readings scatter. A potency beside an inconclusive call is a rough fit, not a confirmed value.

Assay: qHTS for Inhibitors of human tyrosyl-DNA phosphodiesterase 1 (TDP1): qHTS in cells in presence of CPT; also: nearly all actives have a fitted effect of over 55% in size
Conditions: chicken DT40 Tdp1-/-;hTDP1 cells + 20 nM CPT, ATP luminescence, 48 h; series mostly up to 46.2 µM
How it was run: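 Chicken DT40 Tdp1-/- cells complemented with human TDP1, 400 cells/well, exposed to compounds plus 20 nM camptothecin for at least 48 h at 37 C; viability read as ATP content by CellTiter-Glo luminescence.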
Potency is read from the fitted curve at half-maximal effect; tags tell the direction and shape of the fitted curve.

Row | Structure (SMILES) | Potency
1 | C(=NOCc1ccccc1)c1ccccn1 | inactive
2 | COc1cccc(CN(C)C(=O)CCN=C2NS(=O)(=O)c3ccccc32)c1 | inactive
3 | COc1ccc(C(=O)N2C=Cc3ccccc3C2C#N)cc1 (stereo not given) | inactive
4 | COc1cc(C(CCN2CCCC(C)C2)c2c(OC)cc(OC)c3c2OC(=O)CC3c2ccc(N(C)C)cc2)cc(OC)c1OC (stereo not given) | inconclusive: 18.4 µM [inhibitor, single point]
5 | Brc1ccc2[nH]c3c(c2c1)CCC3 | inactive
6 | CCOc1ccccc1N1CCN(C(=O)c2ccc(Cl)c(S(=O)(=O)N3CCCCC3)c2)CC1 | inconclusive: 20.6 µM [inhibitor, single point]
7 | O=C1OC(c2ccccc2)=CC1=Cc1ccccc1O | inconclusive: 20.6 µM [inhibitor, single point]
8 | COc1ccc(C2=C(C)C(N3CCC(C(=O)Nc4ccccc4F)CC3)=NS2(=O)=O)cc1 | inconclusive: 25.9 µM [inhibitor, single point]
9 | COc1ccccc1NC(=O)C(=O)N/N=C/c1ccc([N+](=O)[O-])s1 | active: 11.6 µM
10 | COc1ccc(-c2cc(C(=O)NCc3ccccc3)no2)cc1OC | inactive
11 | Cc1ccc(CN2CCC(Oc3ccc(C(=O)NCc4ccccn4)cc3)CC2)o1 | inactive
12 | CCCCC[C@@H]1[C@@H]2C(=C(OCC)C[C@@H]3C(=O)N(c4ccccc4)C(=O)[C@H]23)[C@H](c2ccccc2)N1S(=O)(=O)c1ccc(C)cc1 | inactive
13 | COc1cccc(-c2sc3ccc(OC)cc3c2C#CCCO)c1 | active: 25.9 µM
14 | COc1ccc(C(=O)NCCN(C)C)c2nc3ccccc3cc12 | active: 0.184 µM
15 | CC(C)(C)OC(=O)N/N=C\C=C\c1ccc2c(c1)OCO2 | inactive
16 | Cc1cc(NC(=O)CSc2nc(C)c(C)n2CC(C)C)no1 | inactive
17 | COC(=O)C1=CN(c2ccc(C(C)(C)C)cc2)C(N)=C(C#N)C1c1ccc(OC)cc1 (stereo not given) | inconclusive: 29.1 µM [inhibitor, single point]
18 | O=C(O)CCCNC(=O)c1ccccn1 | inconclusive: 10.3 µM [inhibitor, partial curve]
19 | O=C(C1CCN(c2ncnc3c2nc2n3CCCCC2)CC1)N1CCN(c2ccccc2F)CC1 | inconclusive: 23.1 µM [inhibitor, single point] and inconclusive: 25.9 µM [inhibitor, single point]
20 | COC(=O)CSC1=C(C#N)C(c2cccc(OC)c2)CC(=O)N1 (stereo not given) | inconclusive: 14.6 µM [inhibitor, partial curve, poor fit]
21 | CCc1nc2ccccc2c(C(=O)OCC(=O)N2CC(C)OC(C)C2)c1C (stereo not given) | inconclusive: 23.1 µM [inhibitor, single point]
22 | CCCNS(=O)(=O)c1cc(-c2nn3c(C)nnc3c3ccccc23)ccc1C | inconclusive: 29.1 µM [inhibitor, single point]
23 | Cc1cc(NC(=O)c2ccccc2)n(-c2nc3ccccc3[nH]2)n1 | inconclusive: 29.1 µM [inhibitor, single point]
24 | COc1ccccc1CCNC(=O)Cc1ccc(NC(=O)N2CCSc3ncccc32)cc1 | inconclusive: 29.1 µM [inhibitor, single point]

Row | Structure (SMILES) | Potency
25 | Cc1onc(-c2ccc3c(c2)OCO3)c1-c1ccc2[nH]ccc2c1 | active: 12.6 µM and active: 18.4 µM
26 | CC1(COS(N)(=O)=O)CCCCC1 | active: 0.461 µM
27 | N#Cc1ccc(-c2csc(NNC(=O)c3ccccc3)n2)cc1 | inconclusive: 23.1 µM [inhibitor, single point]
28 | COc1ccc(CNC(=O)c2cc3c(=O)n(Cc4cccnc4)ccc3nc2C)cc1 | inactive
29 | COc1ccc([C@@H]2CC=C(C(=O)O)[C@H](c3ccc(Cl)cc3)N2S(=O)(=O)c2ccc(Cl)cc2)cc1 | inconclusive: 16.4 µM [inhibitor, single point]
30 | COCCn1c(Cc2cccn2C)nnc1SCC(=O)NCc1ccc2c(c1)OCO2 | inactive
31 | CC(=O)N1CCCc2cc(S(=O)(=O)N3CCCC(C(=O)NCc4ccccc4Cl)C3)ccc21 (stereo not given) | active: 20.6 µM
32 | COc1ccc(-c2ccc(-c3nnc(Cc4ccc(OC)c(OC)c4)o3)cc2)cc1 | inactive
33 | CCOc1ccc(C(=O)NCC(=O)OCC(=O)N2CCCC2)cc1 | inconclusive: 3.66 µM [inhibitor, single point]
34 | CCOC(=O)Cc1csc(NC(=O)CSc2nnc(-c3ccncc3)n2Cc2ccco2)n1 | inactive
35 | O=C(NCCc1ccccc1)c1nc2c(nnn2Cc2ccccc2Cl)c(=O)[nH]1 | inconclusive: 23.1 µM [inhibitor, single point]
36 | CC12CCC(=O)N1C(C(=O)N1CCN(S(=O)(=O)c3ccc(F)c(F)c3)CC1)CS2 (stereo not given) | inactive
37 | O=c1c2c(nc(NCCO)n1CC1CCCCC1)-c1ccccc1CC21CCCC1 | inconclusive: 18.4 µM [inhibitor, partial curve]
38 | CCN1CCN(Cc2c(O)ccc3c2O/C(=C\C=C\c2ccccc2OC)C3=O)CC1 | inconclusive: 29.1 µM [inhibitor, single point]
39 | O=C(/C=C1\NC2(CCCC2)Cc2ccccc21)C(=O)N/N=C/c1ccc(O)c(O)c1 | active: 5.8 µM
40 | CCOC(=O)c1ccccc1NC(=O)CN(c1cccc(C)c1C)S(=O)(=O)c1ccccc1 | active: 7.31 µM
41 | O=C(CSc1ccc(-c2cccnc2)nn1)Nc1ccc(F)c(F)c1 | inconclusive: 29.1 µM [inhibitor, single point]
42 | COc1ccccc1-n1c(=O)c2c3c(sc2n2c(SC)nnc12)CCC3 | inactive
43 | CCCS(=O)(=O)Nc1ccc(N2CCCCC2)c(S(=O)(=O)Nc2ccccc2OC)c1 | inconclusive: 16.4 µM [inhibitor, single point]
44 | Cc1cc(C)c(OCCCCN(C)Cc2ccccc2)c(C)c1 | inconclusive: 29.1 µM [inhibitor, single point]
45 | Cc1ccc(NC(=S)NC(=O)/C=C/c2ccc(Cl)cc2)cc1 | inconclusive: 6.51 µM [inhibitor, full curve, poor fit]
46 | CCN(CC)c1ncnc2c1ncn2[C@H]1CN(Cc2ccc(OC)cc2)C[C@@H](CO)O1 | inconclusive: 18.4 µM [inhibitor, single point]
47 | O=C(NCCN1CCN(c2ccccc2F)CC1)C1c2ccccc2C(=O)N2CCc3ccccc3C12 (stereo not given) | inconclusive: 29.1 µM [inhibitor, single point]
48 | Cc1ccc(S(=O)(=O)c2nc(C)oc2N2CCOCC2)cc1 | inconclusive: 29.1 µM [inhibitor, single point]

Row | Structure (SMILES) | Potency
49 | NC(=S)NN=C(Cc1ccccc1)Cc1ccccc1 | active: 5.8 µM
50 | Nc1nc(Cl)cc(Sc2ccc3ccccc3c2)n1 | active: 14.6 µM
51 | CCN(CC)CCCNC(=O)c1cc(-c2ccccc2)c(N2CCCCC2)s1 | inconclusive: 29.1 µM [inhibitor, single point]
52 | CC1CCc2c(cc(-c3ccccc3)n2-c2ccc(C(=O)NC(C)C)cc2)C1 (stereo not given) | inconclusive: 29.1 µM [inhibitor, single point]
53 | CCOc1ccccc1NC(=O)C1CCN(S(=O)(=O)c2ccc3[nH]c(=O)oc3c2)CC1 | inconclusive: 29.1 µM [inhibitor, single point]
54 | COc1cccc(NC(=S)N2CCN(S(=O)(=O)c3ccc(F)cc3)CC2)c1 | inconclusive: 0.0092 µM [inhibitor, full curve, poor fit]
55 | CCCCN(C(=O)C1CC(=O)N(CCc2ccc(OC)c(OC)c2)C1)c1c(N)n(CC(C)C)c(=O)[nH]c1=O (stereo not given) | inactive
56 | CC(=O)Nc1ccc(S(=O)(=O)N2CCN(C(=O)c3ncoc3-c3ccc(F)cc3)CC2)cc1 | inactive
57 | Cn1c(SCC(=O)NCc2ccc3c(c2)OCO3)nc2c(c1=O)SCC2 | inactive
58 | CC(=O)c1ccc(S(=O)(=O)N2CCn3cccc3C2c2ccccc2F)cc1 (stereo not given) | inconclusive: 23.1 µM [inhibitor, single point]
59 | O=C(Nc1nc2ccccc2[nH]1)C12CC3CC(CC(C3)C1)C2 | inconclusive: 29.1 µM [inhibitor, single point]
60 | CN1C(=O)NC(c2cccc([N+](=O)[O-])c2)C2=C1CCCC2=O (stereo not given) | inactive
61 | CCC(CC)C(=O)N(CCc1ccc(OC)cc1)Cc1nc2ccccc2c(=O)[nH]1 | active: 23.1 µM
62 | Cc1cc(=O)n2nc(N3CCCC(C(=O)NCCCN4C(C)CCCC4C)C3)sc2n1 (stereo not given) | inactive
63 | COc1ccc(NC(=O)c2cccc(NS(=O)(=O)c3ccccc3)c2)cc1 | inactive
64 | C=CC(=O)Nc1ccc(N(C)c2ccnc(Nc3ccc(N4CCN(C)CC4)cc3)n2)cc1 | inconclusive: 29.1 µM [inhibitor, single point]
65 | COc1ccc2[nH]c3c(c2c1)CCN1C(=O)C(CC(=O)NCCCN(C)C)C[C@H](C(=O)N2CCCCC2)[C@@]31C (stereo not given in full) | inactive
66 | CCOc1ccc(S(=O)(=O)/N=C(/Nc2ccc(S(N)(=O)=O)cc2)c2ccccc2)cc1 | inconclusive: 29.1 µM [inhibitor, single point]
67 | CN(CC(=O)Nc1cccc(F)c1)C(=O)CNC(=O)Cc1cccc2ccccc12 | inconclusive: 25.9 µM [inhibitor, single point]
68 | Cc1ccc(C(=O)NC(=S)N2CCN(C(=O)OC(C)(C)C)CC2)cc1Br | active: 18.4 µM
69 | COc1ccc(-c2coc3cc(O[C@@H]4O[C@H](CO)[C@@H](O)[C@H](O)[C@H]4O)ccc3c2=O)cc1 | inactive
70 | CCC(C)(C)C1CCc2[nH]nc(C(=O)NCc3ccc(Cl)cc3)c2C1 (stereo not given) | inconclusive: 29.1 µM [inhibitor, partial curve, poor fit]
